Read counts are not given, so values of variants with three or more changes are uncertain.
B1: OR4K15 (parent)
chain: GUUAACGGUCAUAGGCCAUGGAAACUAGGAGCACCAUUUCGCUGCCAGUGAAGAAAUGAACAAAGAAAAUCUGGGCCAGGCAGGCAUCAAAAGAAAUAGUCUUGCGCUCAACCAGAAAGUCUGUAAUCAUUUUAAGGGUA

Variants of: B1
Test: self-cleavage, relative activity (ratio to wild type); higher = more cleavage; in vitro, sequencing; the parent is a self-cleaving ribozyme

Row | Variant | self-cleavage
1 | A22G A51G U103C U127C | 0.36
2 | U19C U37C A110U | 1.37
3 | A22G A47U U127C | 0.51
4 | U19C A59G U72C A78G | 0.31
5 | U19C A33G A59G U108C | 0.02
6 | U19C A47G A52G | 0.86
7 | U19C A68G A91U A114G | 0.57
8 | U19C A33U A56G U70C U87C U103C | 0.2
9 | A22G A89G A98G U103C A116G A125U | 0.03
10 | A22G A51G U108C | 0.02
11 | U19C A51G A89G | 1.27
12 | A22G A30G U39C A52G A117G | 1.18
13 | A22G A47G A51G A64G | 1.01
14 | U19C G41U A56G A114G A117U | 0.32
15 | U19C U38C U57A | 1.5
16 | A22G A54U U57C U70C | 0.63
17 | U19G A63U A66G U87C | 1.33
18 | U19C U57C A69G U103C U132C | 0.97
19 | U19C A82G A96G | 0.48
20 | A22G A116G G123A | 0.98
21 | A22G A23G U57A A67U | 0.89
22 | G20A C34U A51U U131C | 0.9
23 | G20A A68G A89U U100G | 0.73
24 | A22G A60G A90G | 0.43

Row | Variant | self-cleavage
25 | U19C A92G U100C | 2.1
26 | U19C A23G A51G U87A A91G A96G U108A U127A | 0.03
27 | U19C A47U A67U A89G | 0.89
28 | G20A U26C A36U U49G A59G | 1.04
29 | G20A A86C U132C | 1.13
30 | U19C U38C A66G A89G C105A A125G | 0.01
31 | A22G A116G A126G U132C | 1.24
32 | U19C A52G U57C A59G C113U | 0.1
33 | A22G C85U U130C | 0.78
34 | G20A A62G A89C A90G U139C | 0.9
35 | U19C A36C A51U A140U | 1.82
36 | U19C A82G A118G | 0.15
37 | U19C A86U A111G | 0.02
38 | A22G A27G A78G | 0.35
39 | U19C U43A A55G G58A A59G U100A | 0.36
40 | U19C A59G U72A | 0.2
41 | A22G A23G A24U U38C C76U A94G | 0.09
42 | U19C A55C A90G U108C U130C | 0.02
43 | A22G A69G A94G U108C | 0.06
44 | G21U U102C A116U U130C | 0.89
45 | A22G A59U A89C A114G | 0.22
46 | A22G A59G A110G U139C | 0.08
47 | G20A A55G A98G U102C | 1.5
48 | A22G A30G U43C A54G A86U A90G A94G U122C | 0.96

Row | Variant | self-cleavage
49 | A22G A62G A69G | 1.26
50 | U19C U70C A140G | 0.33
51 | A22G A54G A69U | 1.74
52 | U19C U38A A69G A95G | 1.7
53 | U19C A78C A114U A117G A134G | 0.03
54 | U19C A63G U127C A140U | 0.96
55 | U19G A62G A90G | 1.53
56 | A22G A69G A135G | 1.79
57 | G21A A33U A51G U70A | 1.08
58 | A22G A52G A78G A114U | 0.14
59 | U19C A54G A62G U70C | 0.42
60 | A22G A30G A82G | 1.14
61 | G20A C45U A114U | 0.02
62 | U19C A51G U87C A114G | 0.32
63 | U19C A30U A47U A62G A96G U122C | 0.26
64 | A22G C32U A64U A114G A135G | 0.26
65 | U19C U70C A125U | 0.52
66 | U19C A55G A68G U72A A94G A96G A110G A118U | 0.02
67 | G21A U49G U87G A126C | 0.08
68 | A22G A82U U130C A135G | 0.13
69 | A22G A47G U72C | 0.61
70 | U19C A30G A111G | 0.1
71 | U19C U102C U108C | 0.01
72 | G21A A66G G138A | 1.47

Row | Variant | self-cleavage
73 | A22G A60U U87C U108C | 0.04
74 | U19C A66G U103A G115U A125G | 0
75 | G20A A22U A23G A78U A111G U132C | 0.05
76 | A22G A23G U39C A56G A82U | 0.3
77 | U19C U43C A68G U97C U122C | 0.6
78 | A22G G119A U131C | 1.04
79 | A22G A23G A86G | 1.91
80 | U19C C34U U38C A60G G74A | 0.33
81 | A22G C101U U130C | 0.19
82 | A22G A62G U124A | 0.64
83 | G20A A52G A56G A63G | 1.35
84 | U19C A82U U103A | 0.76
85 | A22G A23G A55G | 0.96
86 | A22G A52G A63G | 1.44
87 | U19C C61U A118G | 0.82
88 | A22G A63G A111U | 0.14
89 | U19C A62G U72C | 0.12
90 | A22G A98G U102C | 1
91 | U19C A36U A59G | 0.84
92 | U19C A82G A92U | 0.43
93 | A22G C34U A63G A67G U72A | 0.2
94 | U19C A23G A94G U122C A140G | 1.26
95 | A22G A30G U57A A116G | 0.23
96 | G20U A51G A82C A89U | 0.28

Row | Variant | self-cleavage
97 | U19G A51G U102C A110G U131C | 0.12
98 | A22G A54G U131C | 0.87
99 | G21A A24G U72A A96G | 0.16
100 | A22G A59G A63U | 1.05
101 | A22G A24C A89U | 1.51
102 | U19C U39A A47G A59G A89G A129G | 0.59
103 | A22G A52G A59G A60U A63G A82G U108C A126G A129U | 0.03
104 | G20U A56G A64C | 0.8
105 | A22G A62G A90U U124C C128A | 1.1
106 | A22G A24U A51G | 1.36
107 | A22G A52G A62G U70C | 0.54
108 | U19C A89G U122C A140G | 0.76
109 | A22G U26A A30C A54G U70C U87C U120C | 0.11
110 | A22G A118G U127C U131A | 0.09
111 | A22G A33G A55G A60G U72C A116G | 0.18
112 | U19C G28A G53A | 0.94
113 | U19C A47U C71A | 0.24
114 | U19C A82G A91G U122C | 0.06
115 | U19C U37C U57C U131C | 1.75
116 | A22G A30G C34G U133C | 0.25
117 | U19C U57A A60G | 1.15
118 | A22G A33G U39C A78G | 0.26
119 | U19C U57C A66G A82G | 0.36
120 | U19C G73A A110G | 0.11

Row | Variant | self-cleavage
121 | A22G A68U A126G | 0
122 | U19C A27G A52G A91G U108A | 0
123 | U19C A30U U39A | 1.02
124 | A22G A36U A89G | 1.28
125 | U19C A62G A90G G137A | 0.42
126 | U19C A23G G73A U139C | 0.28
127 | A22C U37C A68G | 1.76
128 | A22G A24G A33U G106A C113A | 0.06
129 | U19C U37C A56G A60U A86G | 0.87
130 | A22G A47U A63G | 0.77
131 | A22G A78G U103C U108C U133A | 0.04
132 | U19C U26C A91G A114G | 0.41
133 | U19C U100A A135G | 0.54
134 | A22G A27C A135G | 1.7
135 | U19G A55G U122C U130C | 1.12
136 | U19C A47G A94G A114U | 0.06
137 | U19C U103C A111G | 0.03
138 | U19G U39C A90G A98G U120C | 0.51
139 | A22G A23G A63G | 0.4
140 | A22G A64G A110G | 0.22
141 | U19C A55G U139C | 1.41
142 | U19C A24G A62U | 1.34
143 | U19C A64G A82G | 0.49
144 | U19C U38C U57C A114U | 0.04

Row | Variant | self-cleavage
145 | U19C A86G A96G U131C | 1.7
146 | A22G A55G A64G U132C | 1.62
147 | A22G A51G A52G U132C | 0.94
148 | A22G A59G U70C A96G A116G | 1.03
149 | A22G A33G U49C A78U C81U A117G A126G A129G | 0.04
150 | A22G A36G A68U | 1.93
151 | A22G A36G A63G | 1.6
152 | A22G A60G U100C U108C A125G | 0.01
153 | U19C A33G A66U A96G | 0.42
154 | A22G A36G A56G A68G U87A | 0
155 | A22G A52G A89G | 0.52
156 | U19C G53U G58A A140G | 1.37
157 | U19C A54G A82G U100C U108C | 0.02
158 | A22G A55G A60U U102C G115A A126G U133A | 0.14
159 | U19C A111G A116G | 0.01
160 | G20A A96G U103C U122G | 0.61
161 | A22G A56G A69G | 0.98
162 | A22C A23G U39C U103C | 0.7
163 | A22G A55G A59U A118U U132C | 0.3
164 | A22G A55G U70C | 1.33
165 | U19C A111G A140G | 0.03
166 | G21U A69U A86G | 2.33
167 | A22G A52C A67U A96G U124C U130C | 1.45
